Measured values: PubChem BioAssay AID1508624 (National Center for Advancing Translational Sciences (NCATS), 2021)
About 120 (0.25%) of roughly 48,000 compounds were called active. About 4% were inconclusive and are not listed. Calls follow the shape of the dose curve; as a rule, active = well fitted activation curve with a large enough effect; inconclusive = small, poorly fitted or top-dose-only effect, or another doubt; inactive = no such curve, though single readings can be large or run the other way. The list shows a part of the results.

Assay: Primary qHTS for Identification of Small Molecule Activators of Huntingtin-Antisense Promoter Activity; also: nearly all actives have a fitted effect of over 55% in size
Conditions: HEK293 HTT-AS promoter firefly luciferase reporter, 24 h; series mostly up to 57.5 µM; activity change, positive = activation: at the top concentration
Method in brief: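 Firefly luciferase signal from promoter-reporter HEK293 cells was scaled between vehicle (0%) and zero RLU (-100%). Compounds were tested at final concentrations of up to 57.5 uM over 24 h at 37 degrees C. PTC124 at 50 uM final served as control inhibitor.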
Potency is read from the fitted curve at half-maximal effect.

Activity change, positive = activation, inactive:
CC1=C(c2ccc(C)cc2)S(=O)(=O)N(Cc2ccc(C(=O)NCc3ccccc3F)cc2)C1=O -21.8%
O=C1CCCc2[nH]c(=O)c(-c3nc(-c4cccc([N+](=O)[O-])c4)cs3)cc21 -19%
CC(=O)c1ccc(NC(=O)Cn2c(=O)oc3cc(S(=O)(=O)N4CCCCC4)ccc32)cc1 -8.92%
COc1ccc(-c2nc(CNC(=O)NC3CCCCC3)c(C)o2)c(OC)c1 -10.2%
Cc1ccc2c(c1)C(C)(c1ccccc1)CC(C)(C)N2C(=O)c1ccc(F)cc1 (centres undefined) -45.5%
CCOC(=O)c1cc2c(=O)n3ccccc3nc2n(Cc2ccco2)c1=NC(=O)c1ccc(F)cc1 -7.95%
O=C(CCCn1c(=O)[nH]c2ccccc2c1=O)N1CCN(c2ccccc2)CC1 -7.66%
O=C(CN1C(=O)COc2ccc(S(=O)(=O)N3CCOCC3)cc21)N1CCN(c2ccc(Cl)cc2)CC1 -12.9%
O=S(=O)(NCCc1cn2ccsc2n1)c1ccc(Cl)cc1 -18.3%
CCCCCCc1cc2cc(-c3cn4c(n3)sc3cc(OC)ccc34)c(=O)oc2cc1O -1.6%
CCN1CCN(CCCNC(=O)c2cnn(-c3ccc(OC)cc3)c2C2CCN(C(=O)OC(C)(C)C)CC2)CC1 4.32%
COc1ccc(Cl)cc1C(=O)NCCc1ccc(S(=O)(=O)NC(=O)NC2CCCCC2)cc1 -23%
COC(=O)c1ccc(C(=O)OC)c(NC(=O)c2cnn3c(C(F)F)cc(-c4ccc(C)cc4)nc23)c1 -8.58%
CC1=Nc2cc(C(=O)NC3CCCC3)ccc2Sc2ccc(Cl)cc21 -42.7%
CCOC(=O)c1ccc(Nc2nc3ccccc3n3c(C)nnc23)cc1 4.39%
CCOCCc1nn2c(=O)cc(COC(=O)c3ccccc3NC(=O)CC(C)C)nc2s1 -11.3%
COc1ccc(N(C)S(=O)(=O)c2ccc3c(c2)n(C)c(=O)c(=O)n3C)cc1 -0.223%
CC(C)CN(CC(C)C)S(=O)(=O)c1ccc(C(=O)Nc2sc3c(c2C(N)=O)CCN(C(C)C)C3)cc1 -22.1%
CCOc1ccc(-c2noc(CSc3nnc(Cc4ccccc4)n3-c3ccc(F)cc3)n2)cc1 -36.1%
O=C(Cn1c(-c2cccs2)cc2cc(F)ccc21)N1CCCCC1 -11.4%
Cc1cccc(N2CCN(c3ncnc4c3cnn4-c3ccc(Cl)cc3)CC2C)c1 (centres undefined) -7.58%
COC(=O)c1scc(-c2ccc(C)cc2)c1S(=O)(=O)N1CCN(c2ccccc2F)CC1 -34.1%
COc1cccc(C(=O)Nc2c3c(nn2-c2ccc(C)cc2C)CS(=O)(=O)C3)c1OC 3.58%
CCC(=O)Nc1ccccc1C(=O)OCc1cc(=O)n2cc(C)sc2n1 -12.2%
COc1ccc(OC)c(NC(=O)Cn2c(CCC(=O)O)ccc2-c2ccccc2)c1 -11.5%
CC(C)CCN1C(=O)c2ccccc2CC1(C)C(=O)NC1CCCCC1 (centres undefined) -0.676%
CC1CC(=O)N(CC(=O)Nc2ccc(OC(F)(F)F)cc2)c2ccccc2S1 (centres undefined) -24.8%
CCCN1CCN(C(=O)Cn2ncc3c4ccccc4n(Cc4cccc(Cl)c4)c3c2=O)CC1 -14.2%
O=C(Nc1c(C(=O)N2CCN(c3ccccc3)CC2)oc2ccccc12)c1ccccc1F -18.3%
Cc1cccc(N(C)C(=O)c2cc3c(=O)oc4ccc(C)cc4c3s2)c1 -2.63%
CCOc1ccc(-n2nc3ccc(NC(=O)c4ccc(C)cc4C)cc3n2)cc1 -13.6%
Cc1ccc(CCNC(=O)c2cc3cc(S(=O)(=O)N4CCCCC4)ccc3n2C)cc1 -32.7%
O=C(NCC(c1ccc2c(c1)OCO2)N1CCN(c2ccccc2F)CC1)c1ccccc1F (centres undefined) -9.9%
COc1ccc(C2CC(=O)N(CC(=O)Nc3ccc(C(C)=O)cc3)c3ccccc3S2)cc1OC (centres undefined) -42.7%
CCOC(=O)c1c(C)oc2nc(C)nc(N3CCN(c4cccc(C(F)(F)F)c4)CC3)c12 -64.9%
CCOC(=O)c1c(NC(=O)/C=C/c2ccc(Cl)cc2)sc2c1CCC(C)C2 (centres undefined) -14.5%
COc1ccc(CCC(=O)NC2CC(=O)N(c3ccccc3)C2)cc1 (centres undefined) -13.1%
Cc1ccccc1C(=O)n1nc(-c2ccco2)nc1NCc1cccs1 14.8%
Cc1ccc2[nH]c(CSc3nnc(NC(=O)COc4ccc(F)cc4)s3)cc(=O)c2c1 -16.5%
COc1cc(Cl)c(C)cc1NC(=O)c1nn(C)c2c1CSc1ccccc1-2 -1.96%
O=C(CCCCn1c(=O)c2ccccc2n(Cc2cccc(Cl)c2)c1=O)NCc1ccc2c(c1)OCO2 -6.04%
COc1ccc(CNC(=O)c2cc(-c3ccc(Cl)cc3)n[nH]2)cc1 -6.66%
O=C(NCc1nc(-c2ccccc2)no1)c1ccco1 -3.06%
COc1ccc(CNC(=O)Cn2ncc3c(=O)oc4ccc(C)cc4c32)c(OC)c1 -14%
Cc1cc(=O)n2[nH]c(NC(=O)c3cccc(Cl)c3)nc2n1 -11.1%
CC1=Nc2cc(C(=O)N3CCCCC3)ccc2Sc2ccc(C)cc21 -10.1%
Cc1c(C(=O)NCc2ccc(OC(C)C)cc2)sc2ncnc(N(C)C3CCCCC3)c12 -23%
COc1ccccc1CCNC(=O)CCCn1c(=O)c2cccn2c2cccnc21 -1.8%
COc1ccc(-c2nc(CN3CCC(C(=O)NCc4ccc(F)cc4)CC3)c(C)o2)cc1OC -14%
CCCC(=O)Nc1nnc(SCc2cc(=O)n3cccc(C)c3n2)s1 -6.48%
CC#C[C@]1(O)CC[C@H]2[C@@H]3CCC4=CC(=O)CCC4=C3[C@@H](c3ccc(N(C)C)cc3)C[C@@]21C
O=C(CSc1nccn1Cc1ccc(Cl)cc1)Nc1ccc2c(c1)OCO2 -13.1%
COc1ccc(NC(=O)C2CCCN(S(=O)(=O)c3c(C)[nH]c(=O)[nH]c3=O)C2)cc1Cl (centres undefined) -3.35%
O=C(Nc1ccc(Cl)c(C(F)(F)F)c1)C(Cc1ccccc1)NS(=O)(=O)c1cccc2nsnc12 (centres undefined) -27.7%
CCc1cc2c(cc3c(=O)n(CC(=O)NCCc4ccccc4)ncn32)s1 -0.58%
COc1ccc2oc(=O)c(-c3nc(-c4ccc(C)c(C)c4)cs3)cc2c1 9.84%
CCC(Sc1nc2ncccc2o1)C(=O)Nc1cccc(C)c1 (centres undefined) 8.74%
Cc1ccc(C)c(NC(=O)c2ccc3c(c2)CCN3S(=O)(=O)c2ccccc2)c1 -11.9%
CCc1cccc(CC)c1NC(=O)N1Cc2[nH]nc(NC(=O)c3ccc(N4CCN(C)CC4)cc3)c2C1 -16.1%
C[N+]1(CC2COC(c3ccccc3)(c3ccccc3)O2)CCCCC1 (centres undefined) -9.82% [at 25.1 µM, percent change from vehicle, -100% = no light]
CCc1ccc(C2c3c(-c4ccccc4)n[nH]c3C(=O)N2c2ccc(C(=O)O)cc2)cc1 (centres undefined) -22.8%
C[C@H]1NCc2cc(-c3ccc4c(=O)c(C(=O)O)cn(C5CC5)c4c3OC(F)F)ccc21 -7.28% [at 25.1 µM, percent change from vehicle, -100% = no light]
COc1cccc(-n2cc(C(=O)NCc3ccc(C)cc3)c3ccccc3c2=O)c1 -18.4%
O=C(CN1N=C(c2ccccc2)CCC1=O)NCc1ccc(F)cc1Cl -1.5%
CCn1cc(C(=O)NCCc2ccccc2)c(=O)c2cc(S(=O)(=O)N3CCc4ccccc4C3)ccc21 -19.7%
CCCn1c2ccccc2c2cnn(CC(=O)NCCCN(Cc3ccccc3)C(C)C)c(=O)c21 -19.5%
CCCN(CCC)CCCNC(=O)c1cn(C)c2ccc(S(=O)(=O)N3CCOCC3)cc2c1=O -5.32%
O=S(=O)(NCCc1csc2nc(-c3ccc(Cl)cc3)nn12)c1ccc2c(c1)OCCO2 -30.7%
COc1ccc(-c2cc(C)no2)cc1S(=O)(=O)N1CCOc2ccc(Cl)cc21 -18.7%
COC(=O)c1ccc2c(=O)n(CCCCCC(=O)NCc3ccc(OC)cc3)c(=O)[nH]c2c1 -9.31%
COc1ccc(Nc2cc(C(=O)NCCCN(C)C3CCCCC3)c3ccccc3n2)c(OC)c1 -17.4%
COc1ccc(CCNc2nc(SCc3cccc(F)c3)nc3ccccc23)cc1OC -18.3%
CCC(C)NC(=O)CN1C(=O)c2cccnc2Oc2ccc(C)cc21 (centres undefined) -2.46%
CC(C)c1ccc(NC(=O)CN2C(=O)COc3ccc(S(=O)(=O)N4CCOCC4)cc32)cc1 0.448%
O=C(CSc1c2c(nc3cc(Cl)ccc13)CCCC2)N1CCN(c2ccccc2F)CC1 -51.2%
COc1ccccc1NC(=O)CSc1oc(-c2ccccc2)nc1S(=O)(=O)c1ccc(C)cc1 -1.01%
Cc1ccc2nc(-c3cccnc3)c(Nc3ccc(C(C)C)cc3)n2c1 6.88%
O=C(COc1ccc2ccccc2c1)NC1CC(=O)N(c2ccccc2)C1 (centres undefined) -20.6%
Cc1nc(-c2ccc(S(=O)(=O)N3CCN(c4cc(Cl)ccc4C)CC3)cc2)co1 -21.5%
O=C(c1ccc(F)cc1)n1nc(-c2cccnc2)nc1NCc1ccc(F)cc1 5.39%
O=C(NCCc1ccc(Cl)cc1)C1COc2ccccc2C1 (centres undefined) 31.3%
Cc1cn2c(=O)c(S(=O)(=O)N3CCN(c4cc(Cl)ccc4C)CC3)c(C)nc2s1 -3.81%
O=C(Nc1cccc(-c2nc3cccnc3s2)c1)c1cccc(Br)c1 -10.9%
CCOC(=O)c1ccc(NC(=O)c2cn(-c3ccccc3)nc2-c2ccc(OC)c(OC)c2)cc1 -8.73%
Cc1ccc(S(=O)(=O)c2nc(-c3cccs3)oc2SC(C)C)cc1 -7.62%
N#Cc1ccccc1NC(=O)C(=O)NCCc1csc(-c2ccc(F)cc2)n1 -9.81%
O=C(Cn1c(=O)oc2cc(S(=O)(=O)N3CCCC3)ccc21)Nc1ccc(F)cc1F -21.1%
CCNC(=O)CC1C(=O)N(c2ccc(C)cc2)C(=O)N1CCC(C)C (centres undefined) -20.5%
COc1ccc2c(Sc3ccc(Cl)cc3)c(C(=O)N3CCC(C)CC3)[nH]c2c1 6.02%
CCOc1ccccc1NC(=O)CSc1ncc(S(=O)(=O)c2ccc(C)c(C)c2)c(N)n1 -35.1%
COc1ccc(CCNC(=O)Cn2cc(S(=O)(=O)Cc3ccccc3Cl)c3ccccc32)cc1OC -18.1%
CCSc1nnc2c(n1)OC(c1ccc(C)s1)Nc1ccccc1-2 (centres undefined) 6.84%
COc1cc(NC(=O)N2CCC3(CC2)Nc2ccccc2-n2cccc23)cc(OC)c1OC -33.8%

Potency, active:
O=C(CSc1nnc(-c2ccccc2F)o1)Nc1ccccc1Cl 2240 nM
